Experimental data as given in EP4582447A1 (Quaerite Biopharm Research (Beijing) Co., Ltd., dated 2025).
One block for each binder: values may come before it.

Experiments:
Human VEGFA165 [1] = target: T1, Human VEGFA165 (human, UniProt P15692-4 27-191); experiment: SPR Biacore 8K, V1-SA1-Fc-m1 captured on Protein A chip, VEGFA165 as analyte, 1:1 model
T1 construct: treated as the same molecule; also called antigen VEGFA
T1 sequence (looked up): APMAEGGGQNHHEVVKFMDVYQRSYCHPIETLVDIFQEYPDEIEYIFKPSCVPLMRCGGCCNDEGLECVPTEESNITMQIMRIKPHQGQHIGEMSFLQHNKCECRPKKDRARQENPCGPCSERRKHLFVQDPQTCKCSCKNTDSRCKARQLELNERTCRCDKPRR

Human VEGFA165 [2] = target: T1, Human VEGFA165; experiment: ELISA, VEGFA coated 0.3 µg/mL, anti-His detection

- Kd (Human VEGFA165 [1]): 0.148 nM
- koff (Human VEGFA165 [1]): 0.00013 s⁻¹
- kon (Human VEGFA165 [1]): 877000 M⁻¹ s⁻¹
B1: V1-SA1-Fc-m1 (Fc fusion)
chain: EVQLVESGGGLVQPGGSLRLSCAVSGRTFSSYTMGWFRQAPGKEREFVVAISKGGYKYDSVSLEARFTISRDNAKNTVYLQMNSLRPEDTAVYYCAATRAYGSSRLRLADTYEYWGQGTLVTVSS[… human IgG1 Fc with changes …]
notes: no histidine tag, no additional amino acids at the C terminus; also called V1-SAI-Fc-m1; monovalent nanobody-Fc fusion protein (V1-SA1-Fc-m1)

- EC50 (Human VEGFA165 [2]): 0.35 nM
B2: V15-9GS-PPCP-Fc (Fc fusion)
chain: QLQLVESGGGSVQPGGSLRLSCEVSGRTFASYTMGWFRQAPGKEREFVVAISKGGYKYDSVSLEARFTISKDNTKNTVYLQMNSLKPEDTAVYYCAGTRAYGSSRLRLAETYEYWGQGTQVTVSSGGGGSGGGS[… human IgG1 Fc …]SGGSHHHHHH
